Patent US7803910B2, “Soluble CD164 polypeptides” (Merck Serono S.A., priority 2005, dated 2010)

Experiments:
[1] = system: peritoneal recruitment of macrophages; experiment: Thioglycollate-induced leukocyte peritoneal recruitment assay; assay type: in vivo, C3H mice
Method: The effect of a sCD164 variant on immune cells recruitment was tested using the thioglycollate-induced leukocyte peritoneal recruitment assay. In this example the capacity of ssCD164-Fc (SEQ ID NO: 16) to decrease monocytes/macrophage recruitment was evaluated.
Forty-eight hours after the challenge, the animals were sacrificed and the lavage of the peritoneal cavity was conducted using 2×5 ml PBS-1 mM EDTA (+4° C.). After centrifugation (10 min at 3000 rpm), the pellet was resuspended in 1 ml PBS. The peritoneal cells were counted using a Beckman/Coulter counter. Dexamethasone (1 mg/kg), the anti-inflammatory compound was used as reference positive control.

LPS-induced TNFα release = experiment: LPS-induced TNFalpha release in mice (Example 5); assay type: in vivo, C3H mice; settings: 1 mg/kg iv, 15 minutes prior to LPS; P<0.001
Method: C3H mice (Elevage Janvier) (8 week old), received E. Coli's LPS (O111:B4, Sigma, 0.3 mg/kg, ip) 15 minutes after the administration of the test molecules. LPS was solubilized in sterile saline. Dexamethasone (0.1 mg/kg, sc) was used as reference. 24 h later, the animals were sacrificed and the blood was sampled. Plasma levels of TNF-αwere determined in serum using an ELISA kit (R&D). Statistical analysis was determined with an ANOVA test followed by a post-test of Dunnett.

C3H mice = experiment: Concanavalin A-induced hepatitis in mice; assay type: in vivo; settings: 1 hr before concanavaline A, 18 h
From the text: Several sCD164 variants have been shown in vitro to inhibit secretion of certain cytokines by ConA-stimulated human peripheral blood mononuclear cells (PBMC), see Examples 2 and 3 above. Since cytokines play a crucial role in T-cell induced ConA induced liver hepatitis (Seino et al. 2001, Kusters, 1996; Toyonaga et al. 1994), the present model was used to further test the sCD164 variants.
Eighteen hours later, the animals were sacrificed and the blood was sampled. Serum levels of transaminases (alanine transaminase (ALAT), aspartate aminotransferase (ASAT)) were determined in serum using a clinical analyzer (Hitachi). Dexamethasone (0.3 mg/kg, sc) was used as reference.

female mice (Balb/c) = experiment: Dextran Sodium Sulfate-induced ulcerative colitis model; assay type: in vivo; settings: Study 3; 1 mg/kg, sc
Method: The DSS model of colitis mimics some aspects of the human affection such as macrophage infiltration and up regulation of inflammatory cytokines (i.e. TNFα, IL-1p, IL-6) in the colon mucosa.
Ulcerative colitis (UC) was induced in female mice (Balb/c, 20-22 g, Elevage Janvier) by Dextran Sodium Sulfate (DSS 4%) administered in drinking water (oral route). The mice had free access to DSS during 7 days. Body weight was determined daily. The severity of the UC was assessed by a clinical score estimating the constituency of the stool (0=firm, 1=loose, 2=diarrhea) and the presence of blood (0=no blood, 1=occult blood, 2=gross rectal bleeding). Seven days after the induction of the disease, the animals were sacrificed. The length and the weight of the colon were determined and the ratio Weight/Length/100 g body weight was calculated. The spleen weight was also determined. Blood was sampled to determine serum amyloid protein (SAA) using a specific ELISA.
Test substances or vehicle (PBS/0.02% BSA) was administered at days 3, 4, 5 and 6 after the induction of the UC. Enbrel® (1 mg/kg, sc) was used as reference compound. Three studies were performed as per the following table:
In Study 3, the content of IL-1β in the colon was also measured.

Balb/c mice = experiment: K/BxN serum transfer model of arthritis; assay type: in vivo; settings: for decrease of clinical score / decrease of paw swelling: 5 days per week
Method: This is a passive model of arthritis, induced by serum transfer of K/B×N mice (spontaneously develop arthritis) to naïve mice. This model depends on macrophages and neutrophils. Inflammatory cytokines such as TNFα and IL-1β play an important role in the development of the disease.
Eight week old Balb/c mice (Charles River) received by iv route 150 μl of K/B×N serum (Charles McKay, Australia), containing high level of auto-antibodies against glucose-6-phosphate isomerase. They evolved severe arthritis assessed with a clinical score (0-12) evaluating the presence of swelling, erythema, edema, joint rigidity and ankylosis. The final score was the sum of scores on individual paws. The swelling of ankle, fore paw and hind paw was measure using a caliper. The clinical score and the swelling were determined every day. Fourteen days after the induction of the disease blood was sampled to determine osteocalcin and the legs were removed and fixed in formalin for histology.
Enbrel® (10 mg/kg, sc, once daily, 3 days a week) was used as reference compound.

[2] = Study 1, 0.3 mg/kg ip once daily

B1: sCD164-Fc: SEQ ID NO: 16, Fc-fusion protein comprising sCD164 fused to an Fc part of an immunoglobulin (protein)
chain: DKNTTQHPNVTTLAPISNVTSAPVTSLPLVTTPAPETCEGRNSCVSCFNVSVVNTTCFWIECKDESYCSHNSTVSDCQVGNTTDFCSVSTATPVPTANSTAKPTVQPSPSTTSKTVTTSGTTNNTVTPTSQPVRKSTFDA[human IgG1 Fc not printed]
modifications: homo sapiens
[1]; 0.003 mg/kg iv, 15 min before and 24 h after thioglycollate, 48 h
  reduction of peritoneal recruitment of macrophages: 32%
[1]; 0.03 mg/kg iv, 15 min before and 24 h after thioglycollate, 48 h
  reduction of peritoneal recruitment of macrophages: 38%
[1]; 0.3 mg/kg iv, 15 min before and 24 h after thioglycollate, 48 h
  reduction of peritoneal recruitment of macrophages: 34%
[1]; 0.3 mg/kg sc
  reduction of peritoneal recruitment of macrophages: −27%
LPS-induced TNFα release
  LPS-induced TNFα release: significantly decrease
C3H mice; 0.1 mg/kg sc
  change of increase in serum transaminase ALAT: −52%
  change of increase in serum transaminase ASAT: −54%
C3H mice; 0.3 mg/kg sc
  change of increase in serum transaminase ALAT: −69%
  change of increase in serum transaminase ASAT: −64%
C3H mice; 1 mg/kg sc
  change of increase in serum transaminase ALAT: −59%
  change of increase in serum transaminase ASAT: −63%
Female mice (Balb/c)
  colon reduction: improved significantly
  splenomegaly: improved significantly
Balb/c mice; Study 1, 0.3 mg/kg ip
  reduction of serum osteocalcin (trend): 6%
Balb/c mice; [2]
  decrease of clinical score: 7%
  decrease of paw swelling: 9%
Balb/c mice; Study 1, 1 mg/kg ip
  reduction of serum osteocalcin (trend): 11%
Balb/c mice; Study 1, 1 mg/kg ip once daily
  decrease of clinical score: 14%
  decrease of paw swelling: 19%
Balb/c mice; Study 1, 3 mg/kg ip
  reduction of serum osteocalcin (trend): 37%
Balb/c mice; Study 1, 3 mg/kg ip once daily
  decrease of clinical score: 17%
  decrease of paw swelling: 21%
Balb/c mice; Study 1, ip route
  efficacy, dose dependence: dose dependent
Balb/c mice; Study 2, 1 mg/kg sc
  reduction of serum osteocalcin (trend): 16%
Balb/c mice; Study 2, 1 mg/kg sc once daily
  decrease of clinical score: 6%
Balb/c mice; Study 2, 3 mg/kg sc
  reduction of paw swelling: 14%
  reduction of serum osteocalcin (trend): 31%
Balb/c mice; Study 2, 3 mg/kg sc once daily
  decrease of clinical score: 14%
Balb/c mice; Study 2, sc route
  efficacy, dose dependence: dose dependent
